The record followed here is PubChem BioAssay AID488969 (Vanderbilt High Throughput Screening Facility, 2010).

Molecules are shown by their SMILES. Over roughly 110,000 compounds, “z-score” has its median near -0.1; the highest 2% begin near 2. This is one part of the list. The source made the active and inactive calls.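 Rule for the calls: active = z-score in the third read window above 3 or below -3; inactive = the rest.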

The test has as its target Metabotropic glutamate receptor 8 (Rattus norvegicus) (UniProt P70579). Briefly: rat mGluR8 modulators via GIRK flux, primary screen, cell-based, thallium flux, HTS (AID 488969). The following applies: HEK293 rat mGluR8, GIRK (G protein-gated inwardly rectifying potassium channel) thallium flux, FluoZin2; at 10 µM; stronger effect = higher value; submaximal glutamate (EC20) added with thallium.
UniProt P70579, sequence (P70579 whole entry, looked up): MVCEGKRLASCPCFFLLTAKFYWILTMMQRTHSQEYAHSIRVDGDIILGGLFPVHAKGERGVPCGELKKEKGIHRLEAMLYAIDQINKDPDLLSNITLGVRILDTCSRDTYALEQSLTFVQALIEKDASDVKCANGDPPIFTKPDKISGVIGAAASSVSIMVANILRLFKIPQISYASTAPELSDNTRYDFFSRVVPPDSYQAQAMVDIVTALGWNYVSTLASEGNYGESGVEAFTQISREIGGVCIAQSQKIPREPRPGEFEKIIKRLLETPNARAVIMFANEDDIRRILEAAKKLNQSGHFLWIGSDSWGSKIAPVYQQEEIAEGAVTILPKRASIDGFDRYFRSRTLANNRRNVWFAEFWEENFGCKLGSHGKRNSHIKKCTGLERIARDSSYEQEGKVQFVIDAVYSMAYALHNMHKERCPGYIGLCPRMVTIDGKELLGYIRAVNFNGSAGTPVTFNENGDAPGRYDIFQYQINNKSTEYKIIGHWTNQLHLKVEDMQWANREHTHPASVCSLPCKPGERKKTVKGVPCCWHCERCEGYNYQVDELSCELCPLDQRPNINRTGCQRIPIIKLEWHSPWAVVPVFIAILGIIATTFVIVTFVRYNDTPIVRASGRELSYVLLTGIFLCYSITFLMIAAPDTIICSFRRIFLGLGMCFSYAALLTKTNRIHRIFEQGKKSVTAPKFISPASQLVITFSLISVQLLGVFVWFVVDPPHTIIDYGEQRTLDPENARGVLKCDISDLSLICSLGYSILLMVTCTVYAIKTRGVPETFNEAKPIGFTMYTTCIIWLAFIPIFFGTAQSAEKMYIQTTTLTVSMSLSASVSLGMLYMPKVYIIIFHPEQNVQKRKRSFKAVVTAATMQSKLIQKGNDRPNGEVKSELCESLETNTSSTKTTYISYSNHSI
Consider `Cc1cccc(NC(=S)N2CCC(N(C)CC3CCCO3)CC2)c1C` (configuration not stated), for which the z-score came to 0.0113. `O=C(Cn1cnc2ccccc2c1=O)c1ccccc1` returned a z-score of 0.512.

For the molecule `COC(=O)c1cc(OC)c(OC)cc1NC(=O)C1CCC(=O)N1S(=O)(=O)c1ccc(C)cc1` (configuration not stated), the z-score is -0.0287. Take `CN1C(=O)CSc2ccc(NC(=O)NCc3ccco3)cc21`: the z-score was -0.154. Consider `CCNC(=O)CC1SC(=Nc2ccccc2C)N(C)C1=O` (configuration not stated), for which the z-score is 0.548. For `CCOc1ccc(OCCN2C(=O)NC3(CCCc4ccccc43)C2=O)cc1` (configuration not stated), the z-score is -0.374. As for `NC(=O)CSc1nnc(-c2cccnc2)n1Cc1ccccc1`, the figure is -0.124.

With `O=C(Oc1ccc2ccccc2c1Br)N1CCCCCC1`, the z-score was -0.28. For `CCCCC(=O)Nc1ccc2oc(-c3cccnc3)nc2c1`, the z-score was 1.52.

In turn, `O=C(COC(=O)c1ccncc1)NCc1ccccc1` yielded a z-score of 0.0972. As for `Cc1nc(N2CCCC2)c2ccsc2n1`, the z-score is -0.369. `CC(C)N(CCNC(=O)C1CCN(S(=O)(=O)N2CCOCC2)CC1)Cc1ccccc1` registered a z-score of 0.267.

The molecule `O=C(c1csc2c1CCCC2)N1CCCCC1` returned a z-score of 0.211. The molecule `CCOc1ccccc1NC(=O)CSC1=C(C#N)C(c2ccco2)C(C(=O)Nc2nc3ccccc3s2)=C(C)N1` (configuration not stated) gave a z-score of 0.401. Regarding `CCSc1ncnc2c1oc1ccccc12`, the z-score was -0.37. Turning to `Cc1[nH]n(-c2ccc([N+](=O)[O-])cc2)c(=O)c1C=NCCN1CCN(C(=O)c2ccccc2F)CC1`, the z-score was -1.45.

Consider `CC(CCc1ccccc1)N1CCN(Cc2ccccc2)CC1` (configuration not stated), for which the z-score was -0.337. Next, `COc1ccccc1NC(=O)c1cc2ccccc2o1`: -0.485; `COc1cccc(Nc2c3c(nc4c(-c5ccccc5)c(C)nn24)CCC3)c1`: -0.0626. As for `CCCc1cc(=O)oc2cc(OCc3cc(OC)c(OC)c(OC)c3)c(Cl)cc12`, the z-score is -0.0608. Next, `COc1cccc(C2C3=C(N=c4s/c(=C\c5cccc(O)c5)c(=O)n42)c2ccccc2CC3)c1OC` (configuration not stated): 0.00852; `O=C(COC(=O)CCC(=O)c1ccc(Cl)cc1)NCC1CCCO1` (configuration not stated): -0.0473; `Cc1nnc(Sc2nc3ccccc3o2)c2ccccc12`: 0.212. Molecule `Cc1ccc2nc(NC(=O)CN3CCOCC3)sc2c1` had a z-score of 0.482. On to `CC(CNC(=O)CC(C)(C)C)NC(=O)CC(C)(C)C` (configuration not stated), for which the z-score is -0.138. For the molecule `Cc1ccc(C(=O)OC2CCN(c3ccc([N+](=O)[O-])cc3)CC2)cc1`, the z-score was -0.269. As for `Cc1cc(=O)n2nc(-c3ccccc3)sc2n1`, the figure is -0.0546; as for `OC(CNCC1COc2ccccc2O1)COCc1cccs1` (configuration not stated), -0.47; as for `Cc1nnc(C)n1/N=C/c1cccc(Oc2ccccc2)c1`, -1.4. Molecule `Cc1nn(-c2ccccc2)c(C)c1/C=N/n1c(-c2ccc(C(C)(C)C)cc2)n[nH]c1=S` displayed a z-score of 1.13. Regarding `Clc1ccc(-c2nnc(-c3ccco3)nc2N2CCCCC2)cc1`, the z-score was -0.507. As for `Oc1[nH]c2ccccc2c1N=Nc1nc2ccccc2s1`, the figure is 2.12; as for `CN(C)c1ccc(-c2noc(C3CCN(S(=O)(=O)c4ccc(C(=O)O)cc4)CC3)n2)cc1`, -0.84.

`Nc1ncncc1-c1ccc([N+](=O)[O-])cc1`: the z-score is -0.108. For the molecule `O=C(CNS(=O)(=O)c1cccc(Cl)c1)Nc1ccc(-c2nc3ccccc3s2)cc1`, the z-score was -0.517. Next, `O=C(Cc1cccs1)Nc1nnc(SCc2ccc(C(F)(F)F)cc2)s1`: 0.0915; `CC(C)C(c1nnnn1C1CCCC1)N1CCOCC1` (configuration not stated): -0.00633; `COc1ccc(N(C)C(=O)Nc2ccc3c(c2)nnn3C)cc1`: 0.188. Next, `Cc1ccc(/C=C/C(=O)O)cc1S(=O)(=O)NCCO`: 0.471; `CCOC(=O)c1ccc(N2C(=O)C(O)=C(C(C)=O)C2c2ccccn2)cc1` (configuration not stated): 0.0337. On to `O=Nc1ccc(NOC(=O)c2ccccc2Br)cc1`, for which the z-score was -0.308. Consider `O=C(NCc1cccs1)c1ccccc1`, for which the z-score is -0.268.

Take `COc1ccc(C(=O)Nc2nc3c(s2)Cc2cc(OC)ccc2-3)cc1`: the z-score came out at 0.0208. On to `Cc1ccc(-n2c(SCC(=O)Nc3ccc4c(c3)OCCO4)nnc2-c2ccco2)cc1`, for which the z-score is -0.216. Take `NS(=O)(=O)c1cccnc1Nc1c(Cl)cccc1Cl`: the z-score worked out at 0.0813. Take `CCOC(=O)c1c(CC(C)C)csc1NC(=O)COC(=O)c1cc(OC)c(OC)cc1[N+](=O)[O-]`: the z-score is -0.488.

For `O=C(C1CC2CCC1C2)N1CCN(Cc2ccc3c(c2)OCO3)CC1` (configuration not stated), the z-score came to 0.0282. For the molecule `COC(=O)c1[nH]c2c(c1C)C(=O)CC(c1ccccc1)C2` (configuration not stated), the z-score is -0.281. `O=C(CNC(=O)c1cccs1)NCC(=O)OCc1c(Cl)cccc1Cl`: the z-score was 0.0496.

With `CCC1(c2ccccc2)NC(=O)N(Cc2ccc(C(=O)OC)cc2)C1=O` (configuration not stated), the z-score was -0.422. For the molecule `Cn1cccc1/C=N/NC(=O)c1sc2cc(Cl)ccc2c1Cl`, the z-score was -0.527. Next, `Cc1ccc(-n2nnnc2SC(C)C(=O)Nc2ccccc2-c2ccccc2)cc1` (configuration not stated): -0.321. Next, `COc1ccc(OCc2cccc(C(=O)N3CCCC3)c2)cc1`: -0.0387; `Cc1cccc(OCCCn2c(CCNC(=O)C(C)C)nc3ccccc32)c1`: -0.275; `CC(C)(C)NC(=O)CSc1nsc(SCC(=O)NC(C)(C)C)c1C#N`: -0.0606. Next, `COc1cc(C2C(C#N)=C(N)Oc3c2c(-c2ccccc2)nn3-c2ccccc2)cc(OC)c1OC` (configuration not stated): -0.241; `CC(C)N(C(=S)Nc1cc(S(=O)(=O)N2CCOCC2)ccc1Cl)c1ccccc1`: -0.525; `c1ccc(-n2nnnc2-n2ccnc2)cc1`: 0.463.

As to `O=C(COc1ccc(Cl)cc1Cl)N(Cc1ccco1)C1CCS(=O)(=O)C1` (configuration not stated), the z-score was -0.481.

In the case of `O=C(OCN1C(=O)c2ccccc2C1=O)c1ccccc1`, the z-score amounted to 0.287. As to `CCCCNC(=O)CCCn1c(=O)c2ccccc2n(CC(=O)NCCC2=CCCCC2)c1=O`, the z-score is -0.355. Consider `Cc1ccc(/C(C#N)=C\c2cn(C)c3ccccc23)cc1`, for which the z-score was -0.217.

On to `CCCCn1c(SCC(=O)N2CCN(c3ccccc3)CC2)nc2ccsc2c1=O`, for which the z-score was -1.07. In the case of `CCOC(=O)C1=C(C)N=C2SC(C)C(=O)N2C1c1cccc(F)c1` (configuration not stated), the z-score was -1.68. Next, `CC(NC(=O)Cn1cnnn1)C12CC3CC(CC(C3)C1)C2` (configuration not stated): 0.238. Take `COc1ccccc1C(=O)N1C(CC(=O)Nc2cc(Cl)ccc2C)C(=O)NC2CCCCC21` (configuration not stated): the z-score is -0.0821. `CC(C)(/C=N/O)/[N+]([O-])=C/c1ccco1` gave a z-score of 0.0898. With `CCN(CC)C(=O)CSc1nnc(-c2ccccc2)o1`, the z-score is -0.269.

As for `O=C(OCC(=O)c1c[nH]c2ccccc12)C1=COCCO1`, the z-score was -0.388. For `CCSc1nnc(NC(=O)/C=C/c2ccc3c(c2)OCO3)s1`, the z-score is -0.23.

`O=C(CSc1ccc(Cl)cc1)Nc1ccccc1N1CCN(C(=O)c2ccccc2)CC1`: the z-score is -0.233. For `CCOC(=O)C(CCC#N)(CCC#N)C(=O)OCC`, the z-score was -0.16. Next, `O=c1cc(-c2ccc([N+](=O)[O-])cc2)nc2cc(-c3ccc(F)cc3)[nH]n12`: -0.306; `Cc1oc(C(C)(C)C)cc1C(=O)Nc1cccc(C(=O)O)c1`: -2.4; `CC(=O)c1c(N=CN(C)C)nc(C)nc1-c1ccccc1`: 0.464. Take `COc1cc2c(cc1NC(=O)C(C)Sc1ccc(C)cc1)oc1ccccc12` (configuration not stated): the z-score is -0.125.

In the case of `COc1ccc(-c2nn(CC(=O)Nc3ccc(Cl)c(Cl)c3)c(=O)c3ccccc23)cc1`, the z-score is -0.116. `O=S1(=O)CCN(Cc2ccc(Cl)c(Cl)c2)CC1`: the z-score is -0.199. In the case of `Cc1cccc(C(=O)N2CCC(n3nnc4cc(F)ccc43)CC2)c1`, the z-score was -0.103. For the molecule `Brc1ccc(-n2cc(-c3ccccc3)c3c(NN4CCOCC4)ncnc32)cc1`, the z-score was -0.0384. For the molecule `N#CC1(C#N)C(c2ccccc2)OC23CCCCCC2C1(C#N)C(=N)O3` (configuration not stated), the z-score amounted to 0.016. As to `COc1ccc(-c2cc(C(=O)N3CCCc4ccccc43)no2)cc1`, the z-score is -0.108. In the case of `COC(=O)CN1C(=O)C(O)=C(C(C)=O)C1c1ccc([N+](=O)[O-])cc1` (configuration not stated), the z-score was -0.119.

`Cc1[nH]c2ccccc2c1/C=C/c1nc2ccccc2c(=O)n1-c1cccc([N+](=O)[O-])c1` yielded a z-score of 0.102. With `CCOC(=O)c1c(N)nn(C(=O)CC)c1-c1ccccc1`, the z-score is -0.667. As for `COc1c2c(nc3occc13)C(CC=C(C)C)(OC)C(OC(C)=O)CC2` (configuration not stated), the z-score is 0.0647.

`Cc1cccc(NC(=S)NC(=O)CCc2ccccc2)c1C` gave a z-score of 0.747.

Regarding `COc1ccc(Cl)cc1S(=O)(=O)N1CCCC1`, the z-score was -0.343. Turning to `CCCc1ccc(-c2ccc(/C=C/C(=O)O)cc2)nc1`, the z-score was -0.295.

For the molecule `Fc1ccc(N2CCN(C(c3cccs3)c3nnnn3C3CCCC3)CC2)cc1` (configuration not stated), the z-score was -1.09. Regarding `CCN(CC)Cc1cc(CC(C(N)=O)C(N)=O)ccc1OC`, the z-score is -0.15. For `O=C(CSc1ncn[nH]1)Nc1c(F)cc(F)cc1Br`, the z-score was -0.0805. With `Cc1ccc(CNc2ccc3c(c2)ncn3C)cc1`, the z-score is -0.0947. As for `COCCCNC(=O)CCn1c(=O)c2ccccc2n(CC(=O)Nc2ccccc2C)c1=O`, the figure is -0.201; as for `COC(=O)c1ccc(NC(=O)CNS(=O)(=O)c2cccs2)cc1`, -0.0405; as for `CCCCCC(=O)N/N=C(\C)c1ccc(Cl)cc1`, -0.199. `Fc1ccc2[nH]c3c(NCCN4CCOCC4)ncnc3c2c1` yielded a z-score of 0.07. On to `Cc1noc(NS(=O)(=O)c2ccc(NC(=O)CCCOc3ccc(Cl)cc3Cl)cc2)c1C`, for which the z-score was determined as 0.465. `Cc1ccc(Nc2nc(-c3c(C)nc4ccccn34)cs2)cc1`: the z-score came out at 0.00844. As for `CCOc1ccc(CC(=O)C2C(=O)CCCC2=O)cc1OCC`, the figure is 0.335; as for `COc1ccc(-c2noc(CN(C)S(=O)(=O)c3ccc(Cl)cc3)n2)cc1OC`, -0.395; as for `Cc1ccc(Nc2nc(N)nc(CSc3nnnn3-c3ccccc3)n2)cc1`, -0.258. Turning to `CCCN(CC1CC1)C(=S)Nc1ccc(Oc2ccccc2)cc1`, the z-score is active: 3.7. Consider `Cc1ccc(/C=N/NC(=O)c2sccc2OCc2ccc(F)cc2)cc1`, for which the z-score is -0.163. Consider `O=C(N/N=C\c1ccc(CNS(=O)(=O)c2ccccc2)o1)C(=O)Nc1ccc(F)cc1`, for which the z-score was found to be 0.0979. Turning to `Cn1c(-c2ccc(F)cc2)cnc1NCc1ccc(C#N)cc1`, the z-score is -0.342. Turning to `C=CCOc1ccc2c(c1)C(=NO)c1cc(OCC=C)ccc1-2`, the z-score was -0.466. Next, `Cc1noc(C)c1S(=O)(=O)Nc1c(C)n(C)n(-c2ccccc2)c1=O`: 0.316; `COc1nc(-c2ccncc2)nc2ccccc12`: -0.267. Consider `Cc1ccc(NC(=O)/C(=C/C=C/c2ccccc2)NC(=O)c2ccccc2)cc1`, for which the z-score was -0.104. Consider `COC(=O)C(NC(=O)c1ccc(C)cc1)(Nc1cccc(C)n1)C(F)(F)F` (configuration not stated), for which the z-score was -0.71. As for `Cc1ccc(C(=O)CSc2nnc(-c3ccco3)o2)o1`, the z-score is -0.958.
